Measurements as given in PMC4973362.
These are yes or no findings as the source states them, for the method shown. In cells and extracts the contact can be indirect. Some results given as binding are weak or reduced against the parent protein; the word gives no strength. Tags and fused reporters may be left off the sequences shown.

Protein sequences, listed by entry. Tags and fused reporters are not part of them.
UniProt Q96SW2: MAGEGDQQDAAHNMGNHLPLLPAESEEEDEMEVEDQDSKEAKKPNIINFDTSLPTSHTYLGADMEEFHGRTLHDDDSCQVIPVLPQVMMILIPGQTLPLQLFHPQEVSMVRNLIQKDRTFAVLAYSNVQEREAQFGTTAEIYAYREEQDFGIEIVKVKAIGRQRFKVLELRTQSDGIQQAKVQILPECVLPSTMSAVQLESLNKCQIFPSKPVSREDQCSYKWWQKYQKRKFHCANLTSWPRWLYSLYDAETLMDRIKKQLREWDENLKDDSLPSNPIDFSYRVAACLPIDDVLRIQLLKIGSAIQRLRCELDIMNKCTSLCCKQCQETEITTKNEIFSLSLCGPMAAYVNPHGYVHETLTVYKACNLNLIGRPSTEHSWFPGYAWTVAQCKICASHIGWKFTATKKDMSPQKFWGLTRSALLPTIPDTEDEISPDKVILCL

T1: Myc-tagged TAK1 wild type (UniProt O43318)
T1 sequence: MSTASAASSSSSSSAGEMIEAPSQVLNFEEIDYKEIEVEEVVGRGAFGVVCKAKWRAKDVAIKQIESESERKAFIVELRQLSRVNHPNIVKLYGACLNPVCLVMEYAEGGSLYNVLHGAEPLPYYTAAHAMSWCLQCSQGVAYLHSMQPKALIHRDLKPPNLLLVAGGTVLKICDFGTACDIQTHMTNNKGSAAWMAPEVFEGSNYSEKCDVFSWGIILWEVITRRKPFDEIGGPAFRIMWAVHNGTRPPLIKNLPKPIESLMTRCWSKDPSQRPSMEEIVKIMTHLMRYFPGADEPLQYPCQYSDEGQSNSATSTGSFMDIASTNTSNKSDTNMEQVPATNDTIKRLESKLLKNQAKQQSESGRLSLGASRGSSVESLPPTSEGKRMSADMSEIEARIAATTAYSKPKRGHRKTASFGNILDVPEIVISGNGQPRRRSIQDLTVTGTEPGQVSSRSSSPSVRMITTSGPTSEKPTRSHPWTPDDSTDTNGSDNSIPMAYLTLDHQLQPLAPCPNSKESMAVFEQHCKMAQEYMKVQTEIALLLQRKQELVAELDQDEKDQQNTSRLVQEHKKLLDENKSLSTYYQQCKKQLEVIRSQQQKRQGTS

T2: Myc-TAK1 1-300 (UniProt O43318)
T2 sequence: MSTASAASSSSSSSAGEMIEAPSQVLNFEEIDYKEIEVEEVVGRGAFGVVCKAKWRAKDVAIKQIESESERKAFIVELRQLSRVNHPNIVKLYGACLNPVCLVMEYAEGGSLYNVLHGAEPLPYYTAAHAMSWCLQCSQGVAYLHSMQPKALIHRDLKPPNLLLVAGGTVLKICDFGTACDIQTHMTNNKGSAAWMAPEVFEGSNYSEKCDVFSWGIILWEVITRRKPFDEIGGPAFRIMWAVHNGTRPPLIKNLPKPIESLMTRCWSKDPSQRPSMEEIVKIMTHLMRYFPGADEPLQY

T3: Myc-TAK1 1-400 (UniProt O43318)
T3 sequence: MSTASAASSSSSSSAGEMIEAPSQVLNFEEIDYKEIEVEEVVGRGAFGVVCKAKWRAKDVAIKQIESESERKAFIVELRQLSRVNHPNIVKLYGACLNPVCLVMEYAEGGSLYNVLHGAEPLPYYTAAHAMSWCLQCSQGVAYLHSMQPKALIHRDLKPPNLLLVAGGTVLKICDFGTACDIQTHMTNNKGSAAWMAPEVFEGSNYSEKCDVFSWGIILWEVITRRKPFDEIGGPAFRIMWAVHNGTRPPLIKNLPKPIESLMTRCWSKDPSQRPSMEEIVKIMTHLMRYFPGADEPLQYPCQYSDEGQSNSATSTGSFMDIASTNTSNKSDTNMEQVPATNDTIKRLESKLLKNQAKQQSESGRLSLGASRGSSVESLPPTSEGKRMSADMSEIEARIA

T4: Myc-TAK1 1-500 (UniProt O43318)
T4 sequence: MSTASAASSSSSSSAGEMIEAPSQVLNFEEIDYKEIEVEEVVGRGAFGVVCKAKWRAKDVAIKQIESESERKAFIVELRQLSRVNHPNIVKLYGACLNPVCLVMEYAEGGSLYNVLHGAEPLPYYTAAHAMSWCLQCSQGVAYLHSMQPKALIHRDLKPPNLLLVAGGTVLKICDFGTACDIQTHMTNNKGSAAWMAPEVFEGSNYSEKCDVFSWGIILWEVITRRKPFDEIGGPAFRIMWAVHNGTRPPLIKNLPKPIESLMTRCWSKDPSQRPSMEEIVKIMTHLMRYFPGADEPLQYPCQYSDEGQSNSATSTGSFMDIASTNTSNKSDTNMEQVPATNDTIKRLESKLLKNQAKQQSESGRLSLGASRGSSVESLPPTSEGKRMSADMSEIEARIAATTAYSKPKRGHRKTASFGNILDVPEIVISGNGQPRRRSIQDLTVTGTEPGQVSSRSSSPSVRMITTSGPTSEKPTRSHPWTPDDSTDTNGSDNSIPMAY


Tests used:
[1] = target: T1, Myc-tagged TAK1 wild type; test: co-IP; HEK293T cells co-transfected, extracted 38 h after transfection; immunoprecipitated with anti-Myc antibody, immunoblotted with anti-Flag or anti-Myc (Figure 3e-g)
[2] = target: T2, Myc-TAK1 1-300; test: as above
[3] = target: T3, Myc-TAK1 1-400; test: as above
[4] = target: T4, Myc-TAK1 1-500; test: as above
[5] = target: HA-tagged CRBN (Cereblon) (UniProt Q96SW2); test: co-IP; HEK293T cells co-transfected, extracted 38 h after transfection; immunoprecipitated with anti-HA antibody, immunoblotted with anti-Flag or anti-HA (Figure 3c)
[6] = target: T1, Myc-tagged TAK1 wild type; test: co-IP; HEK293T cells co-transfected with Myc-TAK1 and Flag-TAB1 or Flag-TAB2 in the presence or absence of different concentrations of HA-CRBN, extracted 38 h after transfection; immunoprecipitated with anti-Myc, immunoblotted with anti-Flag, anti-HA or anti-Myc (Figure 3i,j)

Row | binding [1] | binding [2] | binding [3] | binding [4] | binding [5] | binding [6] | Binder
1 | binds | no binding | no binding | no binding | no binding | binds | Flag-tagged TAB2 (TAK1-binding protein 2) (protein, UniProt Q9NYJ8 1-693) MAQGSHQIDFQVLHDLRQKFPEVPEVVVSRCMLQNNNNLDACCAVLSQESTRYLYGEGDLNFSDDSGISGLRNHMTSLNLDLQSQNIYHHGREGSRMNGSRTLTHSISDGQLQGGQSNSELFQQEPQTAPAQVPQGFNVFGMSSSSGASNSAPHLGFHLGSKGTSSLSQQTPRFNPIMVTLAPNIQTGRNTPTSLHIHGVPPPVLNSPQGNSIYIRPYITTPGGTTRQTQQHSGWVSQFNPMNPQQVYQPSQPGPWTTCPASNPLSHTSSQQPNQQGHQTSHVYMPISSPTTSQPPTIHSSGSSQSSAHSQYNIQNISTGPRKNQIEIKLEPPQRNNSSKLRSSGPRTSSTSSSVNSQTLNRNQPTVYIAASPPNTDELMSRSQPKVYISANAATGDEQVMRNQPTLFISTNSGASAASRNMSGQVSMGPAFIHHHPPKSRAIGNNSATSPRVVVTQPNTKYTFKITVSPNKPPAVSPGVVSPTFELTNLLNHPDHYVETENIQHLTDPTLAHVDRISETRKLSMGSDDAAYTQALLVHQKARMERLQRELEIQKKKLDKLKSEVNEMENNLTRRRLKRSNSISQIPSLEEMQQLRSCNRQLQIDIDCLTKEIDLFQARGPHFNPSAIHNFYDNIGFVGPVPPKPKDQRSIIKTPKTQDTEDDEGAQWNCTACTFLNHPALIRCEQCEMPRHF
2 | binds | binds | binds | binds | – | binds | Flag-tagged TAB1 (TAK1-binding protein 1) (protein, UniProt Q15750 1-504) MAAQRRSLLQSEQQPSWTDDLPLCHLSGVGSASNRSYSADGKGTESHPPEDSWLKFRSENNCFLYGVFNGYDGNRVTNFVAQRLSAELLLGQLNAEHAEADVRRVLLQAFDVVERSFLESIDDALAEKASLQSQLPEGVPQHQLPPQYQKILERLKTLEREISGGAMAVVAVLLNNKLYVANVGTNRALLCKSTVDGLQVTQLNVDHTTENEDELFRLSQLGLDAGKIKQVGIICGQESTRRIGDYKVKYGYTDIDLLSAAKSKPIIAEPEIHGAQPLDGVTGFLVLMSEGLYKALEAAHGPGQANQEIAAMIDTEFAKQTSLDAVAQAVVDRVKRIHSDTFASGGERARFCPRHEDMTLLVRNFGYPLGEMSQPTPSPAPAAGGRVYPVSVPYSSAQSTSKTSVTLSLVMPSQGQMVNGAHSASTLDEATPTLTNQSPTLTLQSTNTHTQSSSSSSDGGLFRSRPAHSLPPGEDGRVEPYVDFAEFYRLWSVDHGEQSVVTAP
3 | – | – | – | – | binds | – | Flag-tagged TAK1 (transforming growth factor-beta-activated kinase 1) (protein, UniProt O43318 1-606) MSTASAASSSSSSSAGEMIEAPSQVLNFEEIDYKEIEVEEVVGRGAFGVVCKAKWRAKDVAIKQIESESERKAFIVELRQLSRVNHPNIVKLYGACLNPVCLVMEYAEGGSLYNVLHGAEPLPYYTAAHAMSWCLQCSQGVAYLHSMQPKALIHRDLKPPNLLLVAGGTVLKICDFGTACDIQTHMTNNKGSAAWMAPEVFEGSNYSEKCDVFSWGIILWEVITRRKPFDEIGGPAFRIMWAVHNGTRPPLIKNLPKPIESLMTRCWSKDPSQRPSMEEIVKIMTHLMRYFPGADEPLQYPCQYSDEGQSNSATSTGSFMDIASTNTSNKSDTNMEQVPATNDTIKRLESKLLKNQAKQQSESGRLSLGASRGSSVESLPPTSEGKRMSADMSEIEARIAATTAYSKPKRGHRKTASFGNILDVPEIVISGNGQPRRRSIQDLTVTGTEPGQVSSRSSSPSVRMITTSGPTSEKPTRSHPWTPDDSTDTNGSDNSIPMAYLTLDHQLQPLAPCPNSKESMAVFEQHCKMAQEYMKVQTEIALLLQRKQELVAELDQDEKDQQNTSRLVQEHKKLLDENKSLSTYYQQCKKQLEVIRSQQQKRQGTS
